Positions count from the first letter of the chain named. Some of the results follow.
B1: CUGCUGA (DNA:RNA)
RNA: GGGAGACCGGAAUUCAGAUUGUCCCUGCUGAUUAAAUCCCGUCGUAGCCACCA
DNA 1: CAATCTGAATTCCGGTCTCCC
DNA 2: TGGTGGCTACGACGGGATT
B2: GUUGUCC (DNA:RNA)
RNA: B1 RNA with C25G, G27U, C28G, G30C, A31C
DNA 1: CAATCTGAATTCCGGTCTCCC
DNA 2: TGGTGGCTACGACGGGATT
B3: CGUUUAG (DNA:RNA)
RNA: B1 RNA with U26G, G27U, C28U, G30A, A31G
DNA 1: CAATCTGAATTCCGGTCTCCC
DNA 2: TGGTGGCTACGACGGGATT
B4: CUAGGCG (DNA:RNA)
RNA: B1 RNA with G27A, C28G, U29G, G30C, A31G
DNA 1: CAATCTGAATTCCGGTCTCCC
DNA 2: TGGTGGCTACGACGGGATT
B5: CGCCGUA (DNA:RNA)
RNA: B1 RNA with U26G, G27C, U29G, G30U
DNA 1: CAATCTGAATTCCGGTCTCCC
DNA 2: TGGTGGCTACGACGGGATT
B6: CAAGCCU (DNA:RNA)
RNA: B1 RNA with U26A, G27A, C28G, U29C, G30C, A31U
DNA 1: CAATCTGAATTCCGGTCTCCC
DNA 2: TGGTGGCTACGACGGGATT
B7: AUAGCUA (DNA:RNA)
RNA: B1 RNA with C25A, G27A, C28G, U29C, G30U
DNA 1: CAATCTGAATTCCGGTCTCCC
DNA 2: TGGTGGCTACGACGGGATT
B8: GCUUGUU (DNA:RNA)
RNA: GGGAGACCGGAAUUCAGAUUGUCCGCUUGUUUUAAAUCCCGUCGUAGCCACCA
DNA 1: CAATCTGAATTCCGGTCTCCC
DNA 2: TGGTGGCTACGACGGGATT
B9: CCAUGCU (DNA:RNA)
RNA: B8 RNA with G25C, U27A, U30C
DNA 1: CAATCTGAATTCCGGTCTCCC
DNA 2: TGGTGGCTACGACGGGATT
B10: UGGAUGC (DNA:RNA)
RNA: B1 RNA with C25U, U26G, C28A, A31C
DNA 1: CAATCTGAATTCCGGTCTCCC
DNA 2: TGGTGGCTACGACGGGATT
B11: CAUACAG (DNA:RNA)
RNA: B1 RNA with U26A, G27U, C28A, U29C, G30A, A31G
DNA 1: CAATCTGAATTCCGGTCTCCC
DNA 2: TGGTGGCTACGACGGGATT
B12: ACAAGUC (DNA:RNA)
RNA: B8 RNA with G25A, U27A, U28A, U31C
DNA 1: CAATCTGAATTCCGGTCTCCC
DNA 2: TGGTGGCTACGACGGGATT
B13: UGUCGAC (DNA:RNA)
RNA: B8 RNA with G25U, C26G, U28C, U30A, U31C
DNA 1: CAATCTGAATTCCGGTCTCCC
DNA 2: TGGTGGCTACGACGGGATT
B14: GUAGGUC (DNA:RNA)
RNA: B8 RNA with C26U, U27A, U28G, U31C
DNA 1: CAATCTGAATTCCGGTCTCCC
DNA 2: TGGTGGCTACGACGGGATT
B15: UAAGUUU (DNA:RNA)
RNA: B8 RNA with G25U, C26A, U27A, U28G, G29U
DNA 1: CAATCTGAATTCCGGTCTCCC
DNA 2: TGGTGGCTACGACGGGATT
B16: GCAGUAA (DNA:RNA)
RNA: B1 RNA with C25G, U26C, G27A, C28G, G30A
DNA 1: CAATCTGAATTCCGGTCTCCC
DNA 2: TGGTGGCTACGACGGGATT
B17: AACGGCU (DNA:RNA)
RNA: B8 RNA with G25A, C26A, U27C, U28G, U30C
DNA 1: CAATCTGAATTCCGGTCTCCC
DNA 2: TGGTGGCTACGACGGGATT
B18: UGGGCCG (DNA:RNA)
RNA: B1 RNA with C25U, U26G, C28G, U29C, G30C, A31G
DNA 1: CAATCTGAATTCCGGTCTCCC
DNA 2: TGGTGGCTACGACGGGATT
B19: ACGUAUA (DNA:RNA)
RNA: B8 RNA with G25A, U27G, G29A, U31A
DNA 1: CAATCTGAATTCCGGTCTCCC
DNA 2: TGGTGGCTACGACGGGATT
B20: AAAUGAA (DNA:RNA)
RNA: B8 RNA with G25A, C26A, U27A, U30A, U31A
DNA 1: CAATCTGAATTCCGGTCTCCC
DNA 2: TGGTGGCTACGACGGGATT

The binders below were run against T1, RBFOX1 RRM (Homo sapiens, UniProt Q9NWB1 109-208) (assay: EMSA; HiTS-Eq, 1 nM pool, 10 min; buffer printed only for the single-RNA assays: 10 mM Tris pH 7.5, 150 mM NaCl, 3.4 mM EDTA, 0.001% NP-40, 30 C). Conditions: tags: His6 N-terminal (pET28a); label: 5' 32P.
T1 sequence: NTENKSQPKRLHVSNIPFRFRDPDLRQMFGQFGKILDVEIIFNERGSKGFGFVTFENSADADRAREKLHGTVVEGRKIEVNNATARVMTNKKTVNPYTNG
Outline: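 Relative association constants, normalised to the cognate motif, were derived by comparing read counts of each RNA species with those of the control reaction. The RNA sequenced was the free fraction, separated by 8% native PAGE after a 10 min equilibration in 50 µL of 1 nM 5′-radiolabelled RNA (7 randomized nucleotides) with increasing concentrations of purified wild-type or mutant RbFox RRM.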
B1 was tested, and the binding signal was 0.0215 KA relative to UGCAUGU. With B2 the binding signal was 0.0202 KA relative to UGCAUGU. B3 was tested, and the binding signal was 0.0111 KA relative to UGCAUGU. In the case of B4, the binding signal is reported as 0.0145 KA relative to UGCAUGU. With B5 the binding signal was 0.00436 KA relative to UGCAUGU. For B6, the binding signal was 0.00533 KA relative to UGCAUGU. With B7 the binding signal was 0.00168 KA relative to UGCAUGU. B8 was tested, and the binding signal was 0.0259 KA relative to UGCAUGU. In the case of B9, the binding signal is reported as 0.00802 KA relative to UGCAUGU. For B10, the binding signal was 0.0582 KA relative to UGCAUGU. In the case of B11, the binding signal is reported as 0.00124 KA relative to UGCAUGU. For B12, the binding signal was 0.00151 KA relative to UGCAUGU. For B13, the binding signal was 0.016 KA relative to UGCAUGU. B14 was tested, and the binding signal was 0.0101 KA relative to UGCAUGU. For B15, the binding signal was 0.0119 KA relative to UGCAUGU. In the case of B16, the binding signal is reported as 0.00602 KA relative to UGCAUGU. B17 was tested, and the binding signal was 0.00649 KA relative to UGCAUGU. B18 was tested, and the binding signal was 0.0335 KA relative to UGCAUGU. With B19 the binding signal was 0.0028 KA relative to UGCAUGU. B20 was tested, and the binding signal was 0.00432 KA relative to UGCAUGU.

— publication PMC9911399, “Two distinct binding modes provide the RNA-binding protein RbFox with extraordinary sequence specificity”
